# Experimental data reported in the supplement of paper PMC7238544.
# Structures can show the parent of a compound that is named as a salt. ± gives the standard deviation of the averaged measurements. Some of the results follow.
# How the values were obtained:
# Conditions in all cases: priming compound concentration 100 µM
# [1] = system: hAMSC donor 1; test: Hoechst total cell count ratio vs vehicle control; higher = more cells (less toxicity)
# [2] = system: hAMSC donor 2; test: as above
# [3] = system: hAMSC donor 1; test: transgenic luciferase activity (RLU/mg protein) fold change vs vehicle control (ratio); higher = more transgene expression
# [4] = system: hAMSC donor 2; test: as above
# [5] = system: hAMSC donor 1; test: transfection efficiency (EGFP+ cells / Hoechst count) fold change vs vehicle control (ratio); hAMSC are human adipose-derived mesenchymal stem cells given an EGFP-luciferase plasmid by lipofection; higher = enhanced transfection
# [6] = system: hAMSC donor 2; test: as above
# 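Throughout, for Hoechst total cell count ratio vs vehicle control: compound added 30 min before Lipofectamine 3000 lipoplex delivery, triplicate-well means expressed against DMSO vehicle control wells of the same 96-well plate.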
# 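Throughout, for transfection efficiency (EGFP+ cells / Hoechst count) fold change vs vehicle control: compounds added 30 min before Lipofectamine 3000 lipoplex transfection, triplicate means relative to DMSO vehicle wells on the same plate, luciferase RLU normalized to BCA total protein.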
# 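Throughout, for transgenic luciferase activity (RLU/mg protein) fold change vs vehicle control: compounds in DMSO added 30 min before Lipofectamine 3000 transfection of pEGFP-Luc in 96-well plates, values are means of triplicate wells over DMSO vehicle wells on the same plate.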
Compound,Hoechst total cell count ratio [1],Hoechst total cell count ratio [2],transgenic luciferase activity [3],transgenic luciferase activity [4],transfection efficiency [5],transfection efficiency [6]
COC(=O)Nc1nc2cc(C(=O)c3ccccc3)ccc2[nH]1 [Mebendazole],1.22 ± 0.15,0.163 ± 0.1,0.245 ± 0.065,0.0264 ± 0.031,,
O=C1NC(=O)C(c2ccccc2)(c2ccccc2)N1 [Dilantin],0.894 ± 0.2,1.07 ± 0.23,0.706 ± 0.18,0.871 ± 0.14,1.32 ± 0.49,1 ± 0.049
NC(=O)N1c2ccccc2C=Cc2ccccc21 [Carbamazepine],0.964 ± 0.32,1.27 ± 0.23,0.393 ± 0.079,0.645 ± 0.047,1.21 ± 0.15,1.06 ± 0.12
CC(C)(C)NC[C@H](O)COc1nsnc1N1CCOCC1 [S(-)-Timolol maleate],1.46 ± 0.062,1.31 ± 0.13,0.825 ± 0.13,1.17 ± 0.33,1.12 ± 0.18,1.03 ± 0.2
O=C(NCCO[N+](=O)[O-])c1cccnc1 [Nicorandil],1.64 ± 0.42,0.972 ± 0.056,0.556 ± 0.098,0.778 ± 0.14,1.04 ± 0.26,1.4 ± 0.15
COc1ccc2cc(CCC(C)=O)ccc2c1 [Nabumetone],1.22 ± 0.093,1.51 ± 0.24,2.45 ± 0.4,3.23 ± 0.63,1.28 ± 0.34,1.72 ± 0.28
CCCC1O[C@@H]2C[C@H]3[C@@H]4CCC5=CC(=O)C=C[C@]5(C)[C@H]4[C@@H](O)C[C@]3(C)[C@]2(C(=O)CO)O1 (stereo partly drawn) [Budesonide],1.4 ± 0.13,1.34 ± 0.091,10.4 ± 4.2,0.625 ± 0.033,1.54 ± 0.26,1.23 ± 0.17
O=c1n(CCCN2CCN(c3cccc(Cl)c3)CC2)nc2ccccn12 [Trazodone hydrochloride],1.04 ± 0.036,1.28 ± 0.086,2.35 ± 0.47,1.38 ± 0.76,1.24 ± 0.46,1.44 ± 0.46
CNC(=C[N+](=O)[O-])NCCSCc1csc(CN(C)C)n1 [Nizatidine],1.23 ± 0.055,0.888 ± 0.049,0.732 ± 0.14,0.903 ± 0.38,1.05 ± 0.096,1.32 ± 0.3
CC1COc2c(N3CCN(C)CC3)c(F)cc3c(=O)c(C(=O)O)cn1c23 (stereo not drawn) [Ofloxacin],1.05 ± 0.1,1.77 ± 0.085,0.951 ± 0.18,0.734 ± 0.14,1.02 ± 0.18,0.811 ± 0.16
O=S(=O)(O)CCS [Mesna],1.13 ± 0.14,1.5 ± 0.087,1.11 ± 0.37,0.86 ± 0.32,1.13 ± 0.17,0.879 ± 0.038
CC[C@H]1OC(=O)[C@H](C)[C@@H](O[C@H]2C[C@@](C)(OC)[C@@H](O)[C@H](C)O2)[C@H](C)[C@@H](O[C@@H]2O[C@H](C)C[C@H](N(C)C)[C@H]2O)[C@](C)(O)C[C@@H](C)CN(C)[C@H](C)[C@@H](O)[C@]1(C)O [Azithromycin],1.04 ± 0.017,1.94 ± 0.16,0.506 ± 0.11,0.226 ± 0.022,0.621 ± 0.14,0.601 ± 0.21
Cc1cnc(NC(=O)C2=C(O)c3ccccc3S(=O)(=O)N2C)s1 [Meloxicam],1.12 ± 0.04,1.5 ± 0.028,0.375 ± 0.13,0.829 ± 0.17,0.952 ± 0.22,0.745 ± 0.12
COc1ccc2c3c1O[C@H]1C[C@@H](O)C=C[C@@]31CCN(C)C2 [Galanthamine hydrobromide],1.47 ± 0.25,1 ± 0.1,0.0845 ± 0.047,0.53 ± 0.19,0.443 ± 0.12,0.573 ± 0.13
COC(=O)C1=C(C)NC(C)=C(C(=O)OC2CCCN(Cc3ccccc3)C2)C1c1cccc([N+](=O)[O-])c1 (stereo not drawn) [Benidipine hydrochloride],0.669 ± 0.1,0.502 ± 0.14,0.259 ± 0.13,0.488 ± 0.033,0.665 ± 0.088,0.875 ± 0.32
CCCCCNC(=N)N/N=C/c1c[nH]c2ccc(OC)cc12 [Tegaserod maleate],0.351 ± 0.18,0.134 ± 0.064,0.00156 ± 0.0011,0.000331 ± 6.6e-05,0.47 ± 0.19,0.273 ± 0.21
c1ccc2c(c1)CCCC2C1=NCCN1 (stereo not drawn) [Tetrahydrozoline hydrochloride],1.54 ± 0.14,1.37 ± 0.21,0.85 ± 0.39,0.273 ± 0.05,0.858 ± 0.055,1.22 ± 0.37
COc1ccc2[nH]c([S+]([O-])Cc3ncc(C)c(OC)c3C)nc2c1 (stereo not drawn) [Omeprazole],1.43 ± 0.23,1.18 ± 0.047,1.03 ± 0.1,0.901 ± 0.11,0.763 ± 0.078,0.705 ± 0.058
CC(C)NCC(O)COc1ccc(CC(N)=O)cc1 (stereo not drawn) [Atenolol],1.14 ± 0.047,1.22 ± 0.048,3.08 ± 1.8,1.39 ± 0.32,1.44 ± 0.5,1.1 ± 0.1
CCN(CC)CCCC(C)Nc1c2ccc(Cl)cc2nc2ccc(OC)cc12 (stereo not drawn) [Quinacrine hydrochloride hydrate],0.237 ± 0.072,0.0557 ± 0.03,0.00188 ± 0.0004,0.000565 ± 0.00018,,
CC(=O)[C@]1(O)Cc2c(O)c3c(c(O)c2[C@@H](O[C@H]2C[C@H](N)[C@H](O)[C@H](C)O2)C1)C(=O)c1ccccc1C3=O [Idarubicin hydrochloride],0.0193 ± 0.027,0.00433 ± 0.0025,0.02 ± 0.016,0.000217 ± 8e-05,,
CN[C@H]1CC[C@@H](c2ccc(Cl)c(Cl)c2)c2ccccc21 [Sertraline hydrochloride],0.099 ± 0.035,0.163 ± 0.059,0.00394 ± 0.00021,0.00273 ± 0.0043,0.151 ± 0.14,0.0886 ± 0.0089
COc1ccccc1OCCNCC(O)COc1cccc2[nH]c3ccccc3c12 (stereo not drawn) [Carvedilol],0.688 ± 0.025,0.284 ± 0.022,13.5 ± 2.2,4.18 ± 0.82,2.46 ± 0.4,2.78 ± 0.53
CCC1=C[C@@H]2CN(C1)Cc1c([nH]c3ccccc13)[C@@](C(=O)OC)(c1cc3c(cc1OC)N(C)[C@H]1[C@@](O)(C(=O)OC)[C@H](OC(C)=O)[C@]4(CC)C=CCN5CC[C@]31[C@@H]54)C2 [Vinorelbine tartrate],1.3 ± 0.042,0.421 ± 0.021,0.354 ± 0.13,0.473 ± 0.17,0.403 ± 0.03,0.433 ± 0.088

Compound,Hoechst total cell count ratio [1],Hoechst total cell count ratio [2],transgenic luciferase activity [3],transgenic luciferase activity [4],transfection efficiency [5],transfection efficiency [6]
S=c1[nH]cnc2nc[nH]c12 [Mercaptopurine],1.08 ± 0.19,1.55 ± 0.16,0.692 ± 0.44,0.39 ± 0.11,0.966 ± 0.22,1.12 ± 0.19
CCC(=O)O[C@]1(C(=O)SCF)[C@H](C)C[C@H]2[C@@H]3C[C@H](F)C4=CC(=O)C=C[C@]4(C)[C@@]3(F)[C@@H](O)C[C@@]21C [Fluticasone propionate],1.27 ± 0.035,0.924 ± 0.023,2.54 ± 1.4,1.94 ± 0.026,,
Nc1nc2ccc(Cl)cc2c2nc(-c3ccco3)nn12,2.2 ± 0.21,1.58 ± 0.053,0.272 ± 0.064,0.491 ± 0.15,1.52 ± 0.57,1 ± 0.29
Cn1ccnc1S [Methimazole],1.21 ± 0.23,1.52 ± 0.23,3.25 ± 0.057,1.54 ± 0.65,1.74 ± 0.31,1.46 ± 0.23
C[C@](N)(Cc1ccc(O)c(O)c1)C(=O)O [Methyldopa],1.34 ± 0.14,0.973 ± 0.059,2 ± 1.6,1.27 ± 0.46,1.42 ± 0.33,1.08 ± 0.24
COc1ccc(CN2CCN(C(c3ccc(F)cc3)c3ccc(F)cc3)CC2)c(OC)c1OC [Lomerizine dihydrochloride],0.491 ± 0.064,1 ± 0.051,0.23 ± 0.2,0.06 ± 0.015,0.486 ± 0.098,0.127 ± 0.035
CC(C)OC(=O)CCC/C=C\C[C@@H]1[C@@H](CC[C@@H](O)CCc2ccccc2)[C@H](O)C[C@@H]1O [Latanoprost],1.75 ± 0.13,1.49 ± 0.056,0.271 ± 0.054,0.885 ± 0.38,0.189 ± 0.21,0.365 ± 0.046
CC1=C(/C=C/C(C)=C/C=C/C(C)=C\C(=O)O)C(C)(C)CCC1 [Isotretinoin],2.09 ± 0.51,1.22 ± 0.13,0.13 ± 0.047,0.192 ± 0.035,0.18 ± 0.026,1.14 ± 0.36
C[C@H]1[C@H](OC(=O)CCC(=O)O)O[C@@H]2O[C@@]3(C)CC[C@H]4[C@H](C)CC[C@@H]1[C@@]24OO3 [Artesunate],1.21 ± 0.11,1.76 ± 0.067,1.19 ± 0.99,0.585 ± 0.15,1.12 ± 0.31,0.551 ± 0.074
CC(C)[N+](C)(CCOC(=O)C1c2ccccc2Oc2ccccc21)C(C)C [Propantheline bromide],1.34 ± 0.3,1.4 ± 0.22,0.341 ± 0.14,0.216 ± 0.15,0.78 ± 0.27,0.99 ± 0.13
OC(CCN1CCCCC1)(c1ccccc1)C1CCCCC1 (stereo not drawn) [Trihexyphenidyl hydrochloride],1.21 ± 0.068,1.8 ± 0.37,1.06 ± 0.23,1.76 ± 0.24,0.986 ± 0.17,0.777 ± 0.094
CN1CCC[C@H]1c1cccnc1 [Nicotine],1.32 ± 0.017,1.3 ± 0.3,0.985 ± 0.5,0.682 ± 0.11,0.998 ± 0.14,1.13 ± 0.21
O=C(c1ccc(F)cc1)C1CCN(CCn2c(=S)[nH]c3ccccc3c2=O)CC1 [Altanserin hydrochloride],0.93 ± 0.08,0.496 ± 0.023,1.58 ± 0.6,0.881 ± 0.54,,
CC(=O)O[C@]1(C(C)=O)CC[C@H]2[C@@H]3C[C@H](C)C4=CC(=O)CC[C@]4(C)[C@H]3CC[C@@]21C [Medroxyprogesterone 17-acetate],1.3 ± 0.024,1.59 ± 0.22,1.6 ± 0.35,1.6 ± 0.28,1.67 ± 0.26,1.39 ± 0.13
O=c1ncc(F)c[nH]1 [5-Fluoro-2-pyrimidone],1.27 ± 0.036,1.17 ± 0.19,0.368 ± 0.11,0.564 ± 0.077,0.902 ± 0.26,1.03 ± 0.063
C/C=C1\[C@H]2C=C(C)C[C@]1(N)c1ccc(=O)[nH]c1C2 [Huperzine A],2.19 ± 0.074,1.01 ± 0.021,1.07 ± 0.31,1.37 ± 0.17,0.761 ± 0.13,0.759 ± 0.13
CN1[C@@H]2CC[C@H]1C[C@@H](OC(c1ccccc1)c1ccccc1)C2 [Benztropine mesylate],0.951 ± 0.057,0.615 ± 0.41,0.767 ± 0.33,0.219 ± 0.11,0.997 ± 0.21,0.992 ± 0.23
CO[C@@]1(NC(=O)Cc2cccs2)C(=O)N2C(C(=O)O)=C(COC(N)=O)CS[C@@H]21 [Cefoxitin sodium],1.22 ± 0.061,1.05 ± 0.27,0.874 ± 0.53,0.648 ± 0.14,0.705 ± 0.32,1.78 ± 0.38
CC#C[C@]1(O)CC[C@H]2[C@@H]3CCC4=CC(=O)CCC4=C3[C@@H](c3ccc(N(C)C)cc3)C[C@@]21C,0.828 ± 0.07,1.1 ± 0.23,1.83 ± 0.2,0.964 ± 0.48,1 ± 0.2,0.888 ± 0.17
CC(c1cc2ccccc2s1)N(O)C(N)=O (stereo not drawn) [Zileuton],1.39 ± 0.03,1.25 ± 0.16,1.3 ± 0.35,0.8 ± 0.28,0.955 ± 0.14,1.19 ± 0.061
Nc1nc(F)nc2c1ncn2[C@@H]1O[C@H](CO)[C@@H](O)[C@@H]1O [Fludarabine],1.35 ± 0.066,1.19 ± 0.23,1.65 ± 0.42,0.758 ± 0.11,0.808 ± 0.091,1.26 ± 0.19
NCC(O)c1ccc(O)c(O)c1 (racemic) [(+/-)-Norepinephrine hydrochloride],1.22 ± 0.2,1.39 ± 0.26,0.881 ± 0.26,0.512 ± 0.081,1.17 ± 0.3,1.24 ± 0.075
O=C(c1ccc(OCCN2CCCCC2)cc1)c1c(-c2ccc(O)cc2)sc2cc(O)ccc12 [Raloxifene hydrochloride],0.407 ± 0.059,0.598 ± 0.029,2.32 ± 0.64,0.192 ± 0.061,2.4 ± 0.69,0.539 ± 0.095
CC(COc1ccccc1)NC(C)C(O)c1ccc(O)cc1 (stereo not drawn) [Duvadilan],1.27 ± 0.24,1.23 ± 0.087,1.02 ± 0.39,0.424 ± 0.12,1.04 ± 0.025,0.933 ± 0.16
